Laboratory results as given in PubChem BioAssay AID720542 (National Center for Advancing Translational Sciences (NCATS), 2013).
About 740 (0.21%) of roughly 360,000 compounds were called active. This list was built around the results that the source calls inconclusive (neither active nor inactive); the mix of calls is not that of the screen. The call rests on the fitted dose curve; in most records, active means well fitted inhibition curve with a large enough effect; inconclusive means small, poorly fitted or top-dose-only effect; inactive means no such curve, though single readings can be large or run the other way. No potency is given beside an inconclusive call; the fits are too rough.

The compounds below were run on Plasmodium falciparum AMA1 (3D7) - RON2 peptide interaction (assay: qHTS for Inhibitors of AMA1-RON; Towards Development of Antimalarial Drug Lead: Primary Screen). Details: AlphaScreen AMA1-biotinylated RON2 peptide binding; activity change, negative = inhibition: at 58.2 µM (top of the series) unless noted.
Outline: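 AMA1 (3D7) with his tag at 25 nM final met compounds first, then biotinylated RON2 peptide at 25 nM; detection used donor plus acceptor beads, 10 µg/mL apiece, read by AlphaScreen after 30 min at room temperature.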
Further: nearly all actives have a fitted effect of over 45% in size.
Potency means the concentration at half of the fitted maximal effect; tags describe the fitted curve by direction and shape.
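Wherever activity change, negative = inhibition is given: 0% = vehicle wells and -100% = peptide control.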

| SMILES | activity change, negative = inhibition | Potency |
| --- | --- | --- |
| CCC(Oc1ccccc1)C(=O)NCCOC (configuration not stated) | inactive: 4.34% [at 2.32 µM] |  |
| O=[N+]([O-])c1cc(C=Nc2ccc3ccccc3c2)ccc1Br |  | inconclusive [inhibitor, partial curve] |
| Cc1cccc(C)c1C(O)c1ncc(-c2ccccc2Cl)[nH]1 (configuration not stated) |  | inconclusive [inhibitor, partial curve] |
| CN(C)C(CNC(=O)c1cnc(Cl)c(Cl)c1)c1ccccc1 (configuration not stated) |  | inconclusive [inhibitor, partial curve] |
| Cc1ccc2nc(-c3ccc(N4C(=NC(=O)CCC(=O)O)SC5CS(=O)(=O)CC54)cc3)sc2c1 (configuration not stated) |  | inactive |
| COc1cccc(-c2sc3cc(OC)c(OC)cc3c2-c2ccc(OCCN3CCCCC3)cc2)c1 |  | inconclusive [inhibitor, partial curve] |
| O=C1CC=C2C3CC4N(CCC45c4cc(O)c(O)cc4N1C25)CC3=CCBr (configuration not stated) |  | inconclusive [inhibitor, partial curve] |
| COc1ccccc1OCc1cc(C(=O)N2CCCC(OCc3cccnc3)C2)no1 (configuration not stated) |  | inactive |
| CN(C)c1ccc(NC(=O)Oc2ccccc2)cc1 |  | inconclusive [inhibitor, single point] |
| Nn1c(SCC(=O)NC2CCCCC2)nnc1-c1ccc(Cl)cc1 |  | inconclusive [inhibitor, partial curve] |
| CCOc1ccc(C(=O)O/N=C(\N)c2ccccn2)cc1OCC |  | inactive |
| O=[N+]([O-])c1ccc(N2CCCCC2)cc1NCCOc1ccccc1 |  | inconclusive [inhibitor, partial curve, poor fit] |
| O=C(NCCSCc1ccccc1)c1ccc(C2SCC(=O)N2Cc2ccccc2)cc1 (configuration not stated) |  | inactive |
| CCCOc1ccccc1NC(=O)/C=C/c1ccc(OC)c(S(=O)(=O)N2CCOCC2)c1 |  | inactive |
| CC(=O)Nc1ccc(S(=O)(=O)NC2CC(=O)N(c3cccc(F)c3)C2)cc1 (configuration not stated) |  | inactive |
| CCN(CC)CCCN1C(=O)C2C(C(=O)Nc3ccc(C(C)C)cc3)C3C=CC2(O3)C1C(=O)NC1CCCCC1 (configuration not stated) |  | inactive |
| O=C1CC(SC(=S)C2CCCC2=O)C(=O)N1 (configuration not stated) |  | inconclusive [inhibitor, single point] |
| O=C(O)COc1ccccc1/C=N/NC(=O)Cc1ccccc1 |  | inactive |
| CC[C@H](C)C(=O)O[C@H]1CCC=C2C=C[C@H](C)[C@H](CC[C@@H]3C[C@@H](O)CC(=O)O3)[C@H]21 |  | inactive |
| COc1ccc(/C(O)=C/C(=O)C(=O)Nc2c(C)n(C)n(-c3ccccc3)c2=O)cc1 |  | inconclusive [inhibitor, partial curve] |
| Cc1ccc(NC(=O)CN(C)C(=O)c2cc(-c3cccs3)nn2-c2ccccc2)cc1 |  | inconclusive [inhibitor, single point] |
| COc1ccc(NS(=O)(=O)c2ccc3c(c2)[C@H]2C=CC[C@H]2[C@@H](c2ccc(C(=O)O)cc2)N3)cc1 |  | inconclusive [inhibitor, single point] |
| CCN1CC(c2ccccc2)C(c2ccc(Cl)cc2)=N1 (configuration not stated) |  | inconclusive [inhibitor, partial curve] |
| Oc1ccc(-c2cn3c(n2)SCC3)cc1O |  | inconclusive [inhibitor, partial curve] |

| SMILES | activity change, negative = inhibition | Potency |
| --- | --- | --- |
| COc1ccc(CCn2ccc(O)c(Cc3ccc(Cl)cc3Cl)c2=O)cc1OC |  | inconclusive [inhibitor, single point] |
| O=C(CSc1ccccn1)N/N=C/C=C/c1ccccc1 |  | inactive |
| CCOC(=O)c1c(NC(=O)c2cc3n(n2)C(C(F)(F)F)CC(c2cccs2)N3)sc(C)c1C (configuration not stated) |  | inactive |
| CCCOc1ccc(NC(=O)C2CC(=O)N/C(=N/N=C(\C)CCc3ccc4c(c3)OCO4)S2)cc1 (configuration not stated) |  | inactive |
| O=S(=O)(Nc1ccc(-n2cccc2)cc1)c1ccccc1 |  | inconclusive [inhibitor, single point] |
| CC1CCN(S(=O)(=O)c2ccc(C(=O)N3CCCC3C(=O)O)cc2)CC1 (configuration not stated) |  | inactive |
| COc1ccc(CCNC(=O)COc2ccc3c(C)cc(=O)oc3c2)cc1OC |  | inactive |
| CCCc1ccc(C(=O)NNc2ccc(F)cc2)cc1 |  | inconclusive [inhibitor, single point] |
| COc1ccc(-c2c[n+]3c(n2-c2ccccc2)SCC3)cc1 |  | inactive |
| O=C(CSc1nccn1-c1ccccc1)c1ccc(Br)cc1 |  | inactive |
| O=[N+]([O-])c1ccccc1OCCNCc1ccccc1 |  | inconclusive [inhibitor, partial curve] |
| COc1ccc(OC)c(CN2CCN(C(=O)c3cc4ccccc4cc3O)CC2)c1 |  | inconclusive [inhibitor, single point] |
| Cc1ccc(NC(=O)NC2CCCCC2)cc1Cl |  | inactive |
| Nn1c(SCc2ccccc2F)nnc1-c1ccccn1 |  | inconclusive [inhibitor, full curve, poor fit] |
| N#Cc1cccc(C=C(C(=O)c2ccccc2)c2ccccc2)c1 |  | inactive |
| COC(=O)c1cc(/C=C/c2ccccc2)on1 |  | inactive |
| COc1cccc(-c2nn(C)c3sc(C(=O)NCCCN(C)Cc4ccccc4)cc23)c1 |  | inconclusive [inhibitor, partial curve] |
| COc1cc(C)c(CN2CC=C(c3ccc(F)cc3)CC2)cc1C |  | inconclusive [inhibitor, single point] |
| O=C(CN1CCSC1=O)N1CCN(S(=O)(=O)c2ccc(F)cc2)CC1 |  | inactive |
| COCCNC(=O)C(c1ccc(F)cc1)N(C(=O)CCC(=O)Nc1ccccn1)c1ccc(C)cc1 (configuration not stated) |  | inconclusive [inhibitor, single point] |
| CCOc1cc2c3c(c1)C1(Nc4ccccc4S1)C(=O)N3C(C)(C)CC2C (configuration not stated) |  | inconclusive [inhibitor, single point] |
| Cc1ccc(/C=C/C(=O)Nc2cc(C)on2)cc1 |  | inconclusive [inhibitor, partial curve] |
| COc1ccccc1-n1c(C)nnc1SCC(=O)NCc1ccccc1 |  | inconclusive [inhibitor, single point] |
| N#Cc1nc(-c2ccccc2)oc1NCCN1CCCCC1 |  | inconclusive [inhibitor, partial curve, poor fit] |

| SMILES | activity change, negative = inhibition | Potency |
| --- | --- | --- |
| COc1ccc(-c2nnc(CSc3nc4ccccc4c(=O)n3CC(C)C)o2)cc1OC |  | inconclusive [inhibitor, single point] |
| CCOc1ccccc1-c1ccc(C(=O)NCc2ccc(Cl)cc2)o1 |  | inconclusive [inhibitor, partial curve, poor fit] |
| c1ccc(N2CCN(Cc3ccc4c(c3)OCO4)CC2)nc1 |  | inconclusive [inhibitor, single point] |
| Cc1ccc(C(=O)NCc2ccccc2CN2CCCC2)cc1S(=O)(=O)N1CCOCC1 | inactive: 10.1% [at 11.6 µM] |  |
| O=[N+]([O-])c1cccnc1Sc1ccc(Cl)cc1 |  | inconclusive [inhibitor, partial curve] |
| Cc1cccc(NS(=O)(=O)c2ccc3c(c2)NC(=O)CO3)c1C |  | inactive |
| Nc1ccccc1Nc1cc(-c2ccccc2)nn1-c1cccc(Cl)c1 |  | inconclusive [inhibitor, partial curve] |
| COc1ccc(CCCNC(=O)C2Cc3c(-c4ccc5c(c4)OCO5)ccnc3O2)cc1 (configuration not stated) |  | inactive |
| O=C1CC(=C(c2ccccc2)c2ccccc2)C(=O)N1CCCCN1CCN(c2ccccc2)CC1 |  | inconclusive [inhibitor, partial curve] |
| CCN(CC(=O)Nc1cccc(OC)c1)CC(=O)Nc1ccc(Br)c(C)c1 |  | inactive |
| C=CCNc1nc(-c2ccccn2)nnc1-c1ccccc1 |  | inconclusive [inhibitor, single point] |
| CCN1C(=O)/C(=C2\C=Cc3ccccc3N2CC)SC1=S |  | active: 1.19 µM |
| Nc1nc(N)nc(-c2ccccn2)n1 |  | inconclusive [inhibitor, single point] |
| O=C(c1ccc(COc2ccccc2Cl)o1)N1CCN(Cc2ccc3c(c2)OCO3)CC1 |  | inactive |
| Cc1ccc(C)c(N2CCN(c3ncccc3[N+](=O)[O-])CC2)c1 |  | inconclusive [inhibitor, single point] |
| COc1ccc(CNC(=O)C2(C)Cc3c(-c4ccc(N(C)C)cc4)ccnc3O2)cc1OC (configuration not stated) |  | inconclusive [inhibitor, partial curve] |
| CCCCNC(=S)N1CCN(CC)CC1 |  | inconclusive [inhibitor, partial curve] |
| O=C(Nc1ccc2c(c1)OCCO2)c1ccc2ccccc2n1 | inconclusive: -31.8% [inhibitor] |  |
| COc1ccc(-c2cc3c(c4c2ccn4C)C2CCC3C2)cc1OC (configuration not stated) |  | inconclusive [inhibitor, partial curve] |
| O=[N+]([O-])c1ccc(Sc2nnnn2-c2ccccc2)c(Cl)c1 |  | inconclusive [inhibitor, partial curve] |
| CSc1ccc(CN2CCC(C(=O)NCc3ccc(C)cc3)CC2)cc1 |  | inconclusive [inhibitor, single point] |
| Cc1ccc(C)n1-n1c(C)nc2sc3c(c2c1=O)CCCCC3 |  | inconclusive [inhibitor, single point] |
| COc1ccc(-c2c(-c3ccc(OC)nc3)c3ccccc3n2C)cc1 |  | inconclusive [inhibitor, partial curve] |
| COc1ccccc1-c1nc(C#N)c(N2CCN(Cc3ccccc3)CC2)o1 |  | inconclusive [inhibitor, partial curve] |
